Data published in US12589158B2 (priority 2022, dated 2026).
Part of at least one peptide drawing is inferred or uncertain, most often the ends.

Key:
human GIP receptor = biological target: T1, human GIP receptor (Homo sapiens, UniProt P48546); assay: In vitro binding activity to human GIP receptor ([125I]GIP, crude cellular membranes); settings: ratio of the Ki value of the endogenous ligand to the Ki value of the test compound; larger = stronger binding
T1 construct: expressed in transfected cells; crude membranes
T1 sequence (P48546 22-466): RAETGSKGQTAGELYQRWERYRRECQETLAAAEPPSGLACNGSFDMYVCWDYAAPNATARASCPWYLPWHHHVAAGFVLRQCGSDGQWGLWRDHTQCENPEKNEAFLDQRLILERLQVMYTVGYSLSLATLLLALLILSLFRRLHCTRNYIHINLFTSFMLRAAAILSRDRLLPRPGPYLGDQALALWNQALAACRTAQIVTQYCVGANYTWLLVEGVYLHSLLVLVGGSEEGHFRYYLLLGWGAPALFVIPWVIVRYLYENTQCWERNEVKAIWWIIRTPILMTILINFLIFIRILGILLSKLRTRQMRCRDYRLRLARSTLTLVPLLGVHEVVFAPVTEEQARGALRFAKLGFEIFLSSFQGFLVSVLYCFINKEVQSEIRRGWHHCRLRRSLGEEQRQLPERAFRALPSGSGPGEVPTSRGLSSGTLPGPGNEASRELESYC
Description: The compound is serially diluted in DMSO, and then, 2 μL of the diluted compounds or 100% DMSO is added to the test plate containing the membrane solution. […] The test plate is left at room temperature for 90 minutes. […] After drying at 37° C. for 2 hours, 50 μL of scintillation fluid is added to each well. The plate is read with a MicroBeta2 scintillation counter after sealing and settling for at least 1 hour so as to determine the membrane bound radioligand level.
The absolute IC50 concentration of the compound is derived by non-linear regression of the binding percent of [^125I] […] The IC50 concentration is converted to Ki (Ki is the inhibition constant) using the Cheng-Prusoff equation.

rat GLP-1R = biological target: T2, rat GLP-1R (Rattus norvegicus, UniProt P32301); assay: Agonistic activity on GLP-1R of different species (LANCE Ultra cAMP assay): rat; format: cell-based; settings: ratio of EC50 value of other species to human EC50 value; smaller = stronger
T2 construct: expressed in transfected cells
T2 sequence (P32301 22-463): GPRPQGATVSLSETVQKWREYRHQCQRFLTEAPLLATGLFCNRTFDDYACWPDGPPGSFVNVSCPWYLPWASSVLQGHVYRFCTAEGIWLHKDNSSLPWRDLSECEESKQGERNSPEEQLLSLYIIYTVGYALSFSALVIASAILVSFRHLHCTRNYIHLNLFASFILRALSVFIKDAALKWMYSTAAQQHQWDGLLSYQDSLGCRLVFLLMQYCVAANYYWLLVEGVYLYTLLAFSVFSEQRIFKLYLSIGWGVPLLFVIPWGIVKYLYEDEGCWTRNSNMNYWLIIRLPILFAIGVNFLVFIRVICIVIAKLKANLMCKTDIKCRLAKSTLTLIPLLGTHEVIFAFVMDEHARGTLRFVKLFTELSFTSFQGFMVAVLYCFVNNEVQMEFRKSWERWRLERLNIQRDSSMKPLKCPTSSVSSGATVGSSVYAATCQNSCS

rabbit GLP-1R = biological target: T3, rabbit GLP-1R (Oryctolagus cuniculus, UniProt G1SGD4); format: cell-based; settings: ratio of EC50 value of other species to human EC50 value; smaller = stronger
T3 construct: expressed in transfected cells
T3 sequence (G1SGD4 24-462): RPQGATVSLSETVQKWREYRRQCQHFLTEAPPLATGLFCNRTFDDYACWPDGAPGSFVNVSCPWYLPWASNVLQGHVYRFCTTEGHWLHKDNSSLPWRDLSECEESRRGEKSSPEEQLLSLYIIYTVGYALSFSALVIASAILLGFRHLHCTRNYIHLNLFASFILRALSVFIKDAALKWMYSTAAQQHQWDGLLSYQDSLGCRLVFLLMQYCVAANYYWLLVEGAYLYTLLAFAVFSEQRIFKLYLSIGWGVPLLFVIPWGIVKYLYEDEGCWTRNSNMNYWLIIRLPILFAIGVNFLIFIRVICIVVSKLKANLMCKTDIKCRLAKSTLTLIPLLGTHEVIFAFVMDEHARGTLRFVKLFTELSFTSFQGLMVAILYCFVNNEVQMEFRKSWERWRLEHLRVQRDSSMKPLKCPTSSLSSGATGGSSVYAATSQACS

human GIPR = biological target: T4, human GIPR (Homo sapiens, UniProt P48546); format: cell-based; settings: ratio of EC50 value of other species to human EC50 value (human = reference)
T4 construct: expressed in transfected cells
T4 sequence (P48546 22-466): T1 sequence (P48546 22-466)

dog GIPR = biological target: T5, dog GIPR (Canis lupus familiaris, UniProt A0A8I3MPG1); format: cell-based; settings: ratio of EC50 value of other species to human EC50 value; smaller = stronger
T5 construct: expressed in transfected cells; host or cells: CHO-K1 (transient)
T5 sequence (A0A8I3MPG1 24-449): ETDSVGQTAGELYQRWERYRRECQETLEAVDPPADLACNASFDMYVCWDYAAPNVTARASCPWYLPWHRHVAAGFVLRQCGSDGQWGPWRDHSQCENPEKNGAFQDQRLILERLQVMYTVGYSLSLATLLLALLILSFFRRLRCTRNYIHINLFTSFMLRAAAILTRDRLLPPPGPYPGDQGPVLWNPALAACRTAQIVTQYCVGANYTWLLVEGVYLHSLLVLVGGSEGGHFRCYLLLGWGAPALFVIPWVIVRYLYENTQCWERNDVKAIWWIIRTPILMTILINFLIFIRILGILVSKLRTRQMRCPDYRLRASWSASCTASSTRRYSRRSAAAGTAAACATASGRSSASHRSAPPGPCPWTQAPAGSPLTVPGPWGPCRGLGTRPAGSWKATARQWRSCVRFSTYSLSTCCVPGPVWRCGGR

rabbit GIPR = biological target: T6, rabbit GIPR (Oryctolagus cuniculus, UniProt G1T265); format: cell-based; settings: ratio of EC50 value of other species to human EC50 value; smaller = stronger
T6 construct: expressed in transfected cells; host or cells: CHO-K1 (transient)
T6 sequence (G1T265 23-468): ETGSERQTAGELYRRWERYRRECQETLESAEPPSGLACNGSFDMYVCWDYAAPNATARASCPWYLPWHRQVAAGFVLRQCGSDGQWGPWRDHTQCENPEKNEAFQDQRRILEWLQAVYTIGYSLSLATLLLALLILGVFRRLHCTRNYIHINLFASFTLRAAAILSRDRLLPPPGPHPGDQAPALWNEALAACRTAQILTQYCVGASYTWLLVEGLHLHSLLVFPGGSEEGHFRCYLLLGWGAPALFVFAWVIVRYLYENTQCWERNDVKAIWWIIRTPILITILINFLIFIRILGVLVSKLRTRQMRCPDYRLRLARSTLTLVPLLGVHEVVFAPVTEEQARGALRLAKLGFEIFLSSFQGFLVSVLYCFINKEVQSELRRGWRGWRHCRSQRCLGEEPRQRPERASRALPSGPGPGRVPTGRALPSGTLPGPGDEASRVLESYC

CC[C@H](C)[C@H](NC(=O)[C@H](CC(C)C)NC(=O)[C@H](Cc1c[nH]c2ccccc12)NC(=O)[C@H](CCC(N)=O)NC(=O)[C@@H](NC(=O)[C@H](Cc1ccccc1)NC(=O)[C@H](C)NC(=O)[C@H](CCCCNC(=O)COCCOCCNC(=O)COCCOCCNC(=O)CC[C@H](NC(=O)CCCCCCCCCCCCCCCCCCC(=O)O)C(=O)O)NC(=O)[C@H](CCC(N)=O)NC(=O)[C@H](C)NC(=O)[C@@H](NC(=O)[C@H](CCCCN)NC(=O)[C@H](CC(=O)O)NC(=O)[C@H](CC(C)C)NC(=O)C(C)(C)NC(=O)[C@@H](NC(=O)[C@H](CO)NC(=O)[C@H](Cc1ccc(O)cc1)NC(=O)[C@H](CC(=O)O)NC(=O)[C@H](CO)NC(=O)[C@@H](NC(=O)[C@H](Cc1ccccc1)NC(=O)[C@@H](NC(=O)CNC(=O)[C@H](CCC(=O)O)NC(=O)C(C)(C)NC(=O)[C@@H](N)Cc1ccc(O)cc1)[C@@H](C)O)[C@@H](C)O)[C@@H](C)CC)[C@@H](C)CC)C(C)C)C(=O)N[C@@H](C)C(=O)NCC(=O)NCC(=O)N1CCC[C@H]1C(=O)N[C@@H](CO)C(=O)N[C@@H](CO)C(=O)NCC(=O)N[C@@H](C)C(=O)N1CCC[C@H]1C(=O)N1CCC[C@H]1C(=O)N1CCC[C@H]1C(=O)N[C@@H](CO)C(N)=O [Tirzepatide]
GIPR Ki ratio (human GIP receptor): 0.06 | GLP-1R EC50 ratio, Rat (rat GLP-1R): 1.21 | GLP-1R EC50 ratio, Rabbit (rabbit GLP-1R): 0.68 | GIPR EC50 ratio, Human (human GIPR): 1.00 | GIPR EC50 ratio, Dog (dog GIPR): 6.13 | GIPR EC50 ratio, Rabbit (rabbit GIPR): 16.04
